Experimental data published in PMC10668032.
This is one part of the list. At the low end of the ranking, values are background and their order means little.

The sequences below were run against SIX1 homeodomain (reference allele) (UniProt Q15475) (assay: universal protein binding microarray). Settings: Universal all-10-mer PBM (8x60K, AMADID 030236), 300 nM GST-tagged protein, Alexa Fluor 488 anti-GST; buffer, salt, pH and temperature not stated; high values mean tight binding; most listed sequences are background and not binding sites; double strand, one strand shown.

| Sequence | binding signal [E-score] |
| --- | --- |
| CGCTGGTA | 0.0642 |
| CCCATTGC | -0.0557 |
| ACTATGAA | -0.0761 |
| CGAGATTC | -0.0671 |
| CGAGTAAC | 0.033 |
| TCGGTCAA | -0.167 |
| ATTCAGTA | -0.0364 |
| AACACGGG | 0.041 |
| CAAGGGGG | 0.118 |
| ATAAAGTG | 0.13 |
| ACTTTGAT | 0.0693 |
| GACACCAC | 0.439 |
| CGTAAATA | -0.176 |
| CCTGCTCG | -0.138 |
| CAAAGTCG | -0.266 |
| ACATATCA | 0.446 |
| AGAGAGTC | -0.166 |
| TAGATTAA | 0.0424 |
| AGAGGGGA | 0.0764 |
| AGTACAGA | 0.0911 |
| ATCCGTCA | 0.148 |
| CTCCGGCA | 0.0204 |
| TAACTATA | 0.0222 |
| GCAGCTCA | 0.0222 |
| CACACACG | -0.0115 |

| Sequence | binding signal [E-score] |
| --- | --- |
| CCTTCACC | -0.101 |
| ACCGTTGC | -0.0967 |
| GGCAGCGA | -0.0111 |
| AGACTACC | -0.0403 |
| AGCACCCC | 0.0734 |
| GACACCTA | 0.357 |
| AATGATGC | 0.0466 |
| ACAGTGAT | 0.199 |
| AAGGACGA | -0.125 |
| ACTGACCT | -0.265 |
| CAGCACTC | -0.276 |
| AATAGGAC | -0.12 |
| ACAAGAAA | -0.197 |
| TGGAACCA | -0.137 |
| AGAAGATG | 0.0521 |
| ACTTGATG | -0.0445 |
| AGCGGGGG | 0.0499 |
| CTAGCTAG | -0.0497 |
| AGGTCCGA | 0.0566 |
| GAAACATC | -0.0537 |
| GGTCTGAC | -0.22 |
| CTCTCACA | 0.00104 |
| GGGACAAA | -0.175 |
| ACTCTCCA | -0.0886 |
| ATAGTGAG | 0.0731 |

| Sequence | binding signal [E-score] |
| --- | --- |
| ATACACGG | 0.25 |
| AGGGCGAC | -0.0414 |
| CGCGCTTC | -0.123 |
| GCTCCAGA | 0.0304 |
| CGGTGATC | 0.351 |
| AGACGGAT | 0.402 |
| TAATTACA | -0.106 |
| GTACGGTA | 0.0824 |
| ACTTCTCG | -0.046 |
| GAGTCCTA | -0.0675 |
| CTCAAGGC | -0.0958 |
| CGGTAGTA | -0.0428 |
| AGGCTTGG | -0.214 |
| TAGAAGAA | -0.00643 |
| AATAAAGT | -0.0148 |
| CAAAAGTG | -0.0709 |
| CATCCCAG | 0.172 |
| ACTCGCCC | -0.123 |
| AACTAATG | -0.113 |
| ACCCACAC | 0.142 |
| CGGGACTA | -0.273 |
| GTGTTCTA | 0.0365 |
| ACGACTGC | -0.162 |
| CTTCCGCC | -0.106 |
| GCGATGTA | -0.0056 |

| Sequence | binding signal [E-score] |
| --- | --- |
| AGGGGACA | 0.00302 |
| GGAGAGCA | -0.119 |
| CTCCTGAA | -0.0438 |
| ACGCCCGA | 0.0873 |
| ACGTCCAT | -0.127 |
| AATTTAAA | -0.169 |
| ACCTAGTC | -0.0876 |
| GATCCCCC | 0.47 |
| CATTTAAG | -0.221 |
| CACATTAC | -0.0893 |
| ACAGAAGA | -0.00212 |
| CTGAAGTC | -0.23 |
| CACTGAGA | 0.188 |
| CCAATAAA | -0.0581 |
| AACGTCTA | -0.0932 |
| GCTACATA | 0.0846 |
| GTGTTACA | 0.108 |
| GCATCCGA | 0.203 |
| ATTCTGAA | -0.225 |
| GCCACAAA | -0.123 |
| GATTATAC | 0.34 |
| GGTTCTAC | -0.0478 |
| AACGACAG | -0.149 |
| GATCAACC | 0.319 |
| GATTGTAA | 0.0188 |

| Sequence | binding signal [E-score] |
| --- | --- |
| ATGGCGCG | -0.156 |
| GGATGCAC | -0.102 |
| ACTTGCCA | -0.274 |
| GGACCCCA | 0.0357 |
| CATGGTCG | 0.0185 |
| GCCCGGCC | -0.0409 |
| ACCACACA | -0.116 |
| ATCCTTAC | 0.247 |
| ACATATCC | 0.381 |
| ACAGAGAT | 0.138 |
| AATGGGGA | -0.0813 |
| TCAGCAAA | -0.0512 |
| ACCTAAAG | -0.182 |
| GGACGATA | 0.321 |
| CATCTAGC | -0.15 |
| ACAACTGG | -0.0531 |
| AACAGACC | -0.173 |
| CAAAACGA | -0.0138 |
| ATTAGTAA | -0.146 |
| GTAGCTGA | -0.13 |
| CACTATTC | -0.13 |
| ACATTGAA | -0.144 |
| AGACCATC | -0.162 |
| GGCGCAAA | -0.209 |
| ATGCGTAC | -0.0571 |

| Sequence | binding signal [E-score] |
| --- | --- |
| AGCGGAAT | -0.169 |
| CGGTTCAG | -0.098 |
| CAGTAAAC | 0.0198 |
| AACTTGGA | 0.0464 |
| AAGAAAAA | -0.108 |
| GACCACGC | -0.112 |
| AAGTGAGA | 0.142 |
| AGGTTCTC | -0.00898 |
| TAGCGGAA | -0.103 |
| AGACATGC | -0.0943 |
| CCCTCACG | -0.0727 |
| AGAAGTCT | -0.155 |
| GATGTGTA | 0.119 |
| CAGATTCC | -0.047 |
| TCCGATCA | 0.212 |
| CAGAACCC | -0.0182 |
| ACACCACT | 0.378 |
| AAATTTCC | -0.232 |
| CTAGTTCA | -0.211 |
| CCAACCGA | 0.0868 |
| AAAGATTA | -0.0747 |
| AGACTTCC | -0.135 |
| CGAATCGC | -0.0572 |
| CTTGTAAA | -0.331 |
| AACATTCC | -0.341 |

| Sequence | binding signal [E-score] |
| --- | --- |
| GAAAAGAC | -0.182 |
| CACCGTAC | 0.184 |
| GCTAAAAC | -0.238 |
| TATCCTGA | 0.382 |
| GTCTCCAC | -0.162 |
| GCCACGTA | -0.136 |
| ACTTATAC | 0.0258 |
| GTCGGAAC | -0.074 |
| CCCAATGC | -0.159 |
| AACCGTGG | -0.195 |
| CGTCAAAG | -0.299 |
| ACGTTTAT | -0.127 |
| ATGTATTG | 0.209 |
| AACGCGTT | -0.105 |
| AGCTATGA | 0.0341 |
| ATGCGGAA | -0.00985 |
| ACCTGAAG | -0.107 |
| ACAGTATA | 0.287 |
| ACGGATCA | 0.43 |
| AATAGGTA | 0.0805 |
| TCTCGCCA | -0.131 |
| AACTAGAT | 0.23 |
| GGTCTCGA | 0.124 |
| CAACATTC | -0.257 |
| CCTGTTAC | -0.105 |

| Sequence | binding signal [E-score] |
| --- | --- |
| CCTGTCAC | -0.00522 |
| AATCCCAG | 0.133 |
| CCTAAAAG | -0.113 |
| TACGTTGA | 0.0451 |
| GATTCAGA | 0.034 |
| CCCAGATC | 0.38 |
| GATCGAAC | -0.00754 |
| CAACAGAC | -0.189 |
| AACCGACC | 0.0696 |
| CATTAACG | -0.131 |
| GTTCAGAA | -0.0901 |
| TATACGAA | 0.164 |
| ACGCGATC | 0.275 |
| AATTGTCT | -0.0686 |
| CCTCTACC | 0.099 |
| TGTCGTAA | -0.0252 |
| GCTAACAA | -0.233 |
| CGGATAAA | 0.275 |
| ATGTCAGC | -0.194 |
| GTGACGGA | -0.12 |
| GAGCGGCC | -0.279 |
| AATCGGAA | -0.133 |
| AGCCACGG | 0.064 |
| CCTTTGAA | -0.186 |
| CTTGACAA | -0.149 |

| Sequence | binding signal [E-score] |
| --- | --- |
| GACATGGC | -0.072 |
| CTATATTA | 0.152 |
| ATTTCTAG | -0.185 |
| TCTCTTCA | 0.0774 |
| CTCTGTTA | -0.119 |
| GCACGAGA | 0.128 |
| AAGGGAAA | -0.237 |
| ATCTACCC | 0.34 |
| TTAATTAA | -0.0826 |
| CGGGTCCA | -0.13 |
| AGACCTGA | -0.0484 |
| GATTGTCA | -0.0205 |
| GGACAGGA | -0.207 |
| TCTGAGAA | 0.0493 |
| GGTGTCCA | 0.314 |
| CCTAAAGC | -0.0535 |
| ATCAATCC | 0.335 |
| CTTACGTA | 0.00475 |
| CAGAGTCG | -0.0866 |
